Source: the RNAGym collection of RNA variant scans (doi:10.7554/elife.90254)
The source gives no read counts; variants with many changes may rest on few reads.

B1: LINE1-full (parent)
chain: UACGUAGGUGGUUUUCCCCUGAUAGUGCUAAGGGGGCCUGGAAGUUUGGACUGGGCAGAGCUCAACACAGCGUGGCAAAGUGGCUGUGGCUAGACUGCCUCUCUGGAUUCCUCGUCACUCAGCAGGGCAUCUCUGAGAGAAAUGCC

Variants of: B1
Assay: self-cleavage, relative activity (ratio to wild type); higher = more cleavage; in vitro, sequencing; the parent is a self-cleaving ribozyme

Variant	self-cleavage
UACGUAGGUGGUUUUCCCCUGAUAGUGCUAAGGGGGCCUAGAAGUUUGGGCUGGGCAGAGCUCAACACAGCGUGGCAAAGUGGCUGUGGCUAGACUGCCUCUCUGGAUUCCUCGUCACUCAGCAGGGCAUCUCAGAGAGAAAUGCC [G40A A50G U134A]	0.64
UACGCAGGUGGUUUUCCCCUGAUAGUGUUAAGGGGGCCUGGAAGUUUGGACUGGGCAGAGCUCAACACAGCGUGGCGAAGUGGCUGUGGCUAGACUGCCUCUCUGGAUUCCUCGACACUCAGCAGGGCAUCUCUGAGCGAAAUGCC [U5C C28U A77G U115A A138C]	1.46
UACGUAGGUGGUUUUCCCCCGAUAGUGCUAUGGGGGCCUGGAAGUUUGGACUGGGCAGAGCUCAACACAGCGUGGCAAAGUGGCUGUGGCUAGACUGCCUCUCUGGAUUCCCCGUUACUCAGCAGGGCAUCUCUGAGAGAAAUGCC [U20C A31U U112C C116U]	1.29
UACGUAGGCGGUUUUCCCCUGAUAGUGCUAAGGGGGCCUGGAAGUUUGGGCUGGGCAGAGCUCAACACAGCGUGGCAAAGUGGCUGUGGCUAGACUGCCUCUCUGGAUUCCCCGUCACUCAGCAGGGCAUCUCUGAGAGAAAUGCC [U9C A50G U112C]	1.9
UACGUAGGUGGUUUUCCCCUGAUAGUGCCAAGGGGGCCUGGAAGUUUGGACUGGGCAGAGCCCAACACAGCGUGGCAAAGUGGCUGUGGCUAGACUGCCUCUCUGGAUUCCUCGUCACUCAGCAGGGCAUCUCUGAGAGAGAUGCC [U29C U62C A141G]	0.1
UACGUAGGUGGUUUUCCCCUGAUAGUGCUAAGGGGGCCUGGAAAUUUGGACUGGGCAGAGCUCAACACAGCGCGGCAGAGUGGCUGUGGCUAGACUGCCUCUCUGGAUUCCUCGUCACUCAGCAGGGCAUCUCUGAGAGAAAUGCC [G44A U73C A78G]	1.87
UACGUAGGUGGUUUUCCCCUGAUAGUGCUAAGGGGGCCUGGAGGUCUGGACUGGGCAGAGCUCAACACAGCGUGGCAAAGUGGCUGUGGCUAGACUGCCUCUCUGGAUUCCUCGCCACUCAGCAGGGCAUCCCUGAGAGAAAUGCC [A43G U46C U115C U132C]	0
UACGUAGGUGGUUUUCCCCUGAUAGUGCUAAGGGGGCCUGGAAGUUUGGACUGGUCAGAGCUCAACACAGCGUGGCAAAGUGGCUGUGGCUAGACCGCCUCUCUGGAUUCCUCGUCACACAGCAGGGCAUCUCUGAGAGAAAUGCC [G55U U96C U119A]	0
UACGUAGGUGGUUUUCCCCUGAUAGUGCUAAGGGGGCCUGGAAACUUGGACUGGGCAGAGCUCAACACAGCGUGGCAAAGUGGCUGUGGCUAGACUGCCUCUCUGGAUUCCUCGUCACUCAACAGGGCAUCUCUGAGAGAAAUGCC [G44A U45C G122A]	1.48
UACGUAGGUGGUUUUCCCCUGAUAGUGCUAUGGGGGCCUGGAAGUUUGGACUGGGCAGAGCUCAACACGGCGUGGCAAAGUGGCUGUGGCUAGACUGCCUCUCUGGAUACCUCGUCACUCAGCAGGGCAUCUCUGAGGGAAAUGCC [A31U A69G U109A A138G]	0.78
UACGUAGGUGGUUUUCCCCUGAUAGUGCUAAGGGAGCCUGGAAGUUUGGACUGGGCAGAGCUCAACACAGCGCGGCAAAGUGGCUGUGGCUAGACUGCCUCUCUGGAUUCCUCGUCACUCAGCCGGGCAUCUCUGAGAGAAAUGCC [G35A U73C A124C]	1.34
UACGUAGGUGGUUUUCCCCUGAUAGUGCUAAGGGGGCCUGGAAGCUUGAACUGGGCAGAGCCCAACACAGCGUGGCAAAGUGGCUGUGGCUAGACUGCCUCUCUGGAUUCCUCGUCACUCAGCAGGGCAUCUCCGAGAGAAAUGCC [U45C G49A U62C U134C]	0.08
UACGUAGGUGGUUUUCCCCUGAUAGUGCUAAGGGGGCCUGGAAGUUUGGGCUGGGCAGAGCUCUACACAGCGUGGCAAAGUGGCCGUGGCUAGACUGCCUCUCUGGAUUCCUCGUCACUCAGCAGGGCUCCUCUGAGAGAAAUGCC [A50G A64U U85C A129U U130C]	0.17
UACGUAGGUGGUUAUCCCCUGAUAGUGCUAUGGGGGCCUGGAAGUUUGGACUGGGCAGAGCUCAACACAGCGUGGCAAAGUGGCUGUGGCUAGACUGCCUCUCUGGAUUCCUUGUCACUCAGCAGGGCUUCUCUGAGAGAAAUGCC [U14A A31U C113U A129U]	0.94
UACGUAGGUGGUUUUCCCCUGAUAGUGCUAAGGGGGCCUGGAAGUUUGGACUGGGCAGAGCUCAACACAGCGUGGCAAAGUGGCUGUGGCUAGACUGCCUCUCUGGGAUCCUCGUCACUCAGCAGGGCAUCUCUGAGAGAGAUGCC [A107G U108A A141G]	2.33
UACGUAGGUGGUUUUCCCCUGAUAGUGCUAAGGGGGCCUGGAAGUUUGGACUGGGCAGAGCUCAACACAGCGUGGCAAAGUGGCUGUGGCUAGACUGCCACUCUGGAUUCCUCGUCACUCAGCAGGGCAUCUCUGUGAGAAGUGCC [U100A A136U A142G]	0.91
UACGUAGGUGGUUUUCCCCUGAUAGUGCUAAGGGGGCCUGGAAGUUUGGACUGGGCAGAGCUCAACACAGCGUGGCAAAGUGGCUGUGGCUAGACUGCCUCUCUGGAUUCCUCGACGCUCAGCAGGGCAUCUCUGAGAGAAAGGCC [U115A A117G U143G]	2.43
UACGUAGGUGGCUUUCCCCUGAUAGUGCUAAGGGGGCCUGGAAGUUUGGACUGGGCAGGGCUCAACACAGCGUGGCAAAGUGGCUGUAGCUAGACUGCCUCUCUGGAUUCCUCGUCACUCAGCAGGGCAUCUCUGAGAGAAAUGCC [U12C A59G G88A]	0.23
UACGUAGGUGGUUUUCCCCUGAUAGUGCUAAGGGGGCCUGGAAGUUUGGACUGGGCAGAGCUCAACACAGCAUGGCAAAGUGGCUGUGGCUAGACUGCCUCUCUGGAUCCCUCGUCACUCAGCAGGGCAUCUCUGAGAGAAGUGCC [G72A U109C A142G]	1.16
UACGUAGGUGGUCUUCUCCUGAUAGUGCUAAGGGGGCCUGGAAGUUUGGACUGGGCAGAGCCCAACACAGCGUGGCAAAGUGGCUGUGGCUAGACUGCCUCUCUGGAUUCCUCGUCACUCAGCAGGGCAUCUCUGAGAGAAAUGCC [U13C C17U U62C]	0.03

Variant	self-cleavage
UACGUAGGUGGUUUUCCCCUGAUAGUGCUAAGGGGGCCUGGAAGUUUGGACUGGGCAGAGCUUAACACAGCGUGGCAAAGUGGCUGAGGCUAGACUGCCUCCCUGGAUUCCUCGUCACUCAGCAGGGCAUCUCUGAGAGAAAUGCC [C63U U87A U102C]	0.07
UACGUAGGCGGUUUUCCCCCGAUAGUGCUAAGGGGGCCUGGAAGUUUGGACUGGGCAGAGCUCAACACAGCGUGGCAAAGUGGCUGUGGCUAGACUGCCUCUCUGGAUUCCUCGCCACUCAGCAGGGCAUCUCUGAGAGAAAUGCC [U9C U20C U115C]	2.96
UACGUAGGUGGUUUUCCCCUGAUAGUGCUAAAGGGGCCUGGGAGUUUGGACUGGGCAGAGCUCAACACAGCGUGGCAAAGUGGCUGUGGCUAGACUGCCUCUCUGGAAUCCUCGUCACUCAGCAGGGCAUCUCUGAGAGAAAUGCC [G32A A42G U108A]	0.88
UACAUAGGUGGUUUUCCCCUGAUAGUGCUAAGGGGGCCUGGAAGUUUGGACUGGGCAGAGCUCAACACAGCGUGGCAAAGUGGCCGUGGCUAGGCUGCCUCACUGGAUUCCUCGUCACUCUGCAGGGCAUCUCUGAGAGAAAUGCC [G4A U85C A94G U102A A121U]	0.44
UACAUAGGUGGUUUUCCCCUGAUAGUGCUAAGGGGGCCUGGAAGUUUGGACUGGGCAGAGCCCAACACAGCGUGGCAAAGUGGCUGUGGCUAGACUGCCUCUCUGGAUUCCUCGUCACUCAGCAGGGCGUCUCUGAGAGAAAUGCC [G4A U62C A129G]	0
UACGCAGGUGGUUUCCCCCUGAUAGUGCUAAGGGGGCCUGGAAGUUUGGACUGGGCAGAGCUCAACACAGCGUGGCAAAGUGGCUGUGGCUAGACUGCCUCUCUGGAUUCCUCGCCACUCAGCAGGGCAUCUCUGAGAGAAAUGCC [U5C U15C U115C]	0.4
UACGUAGGUGGUUUUCCCCCGAUAGUGCUAAGGGGGCCUGGGAGUUUGGACUGGGCAGAGCUCAACACAGCAUGGCAAAGUGGCUGUGGCUAGGCCGCCUCUCUGGAUUCCUCGUCACUCAGCAGGGCAUCUCUGAGAGAAAUGCC [U20C A42G G72A A94G U96C]	0
UACGUAGGUGGUUUUCCCCUGAUAGUGCUAAGGGGGCCUGGAAGUUUGGACUGGGCAGAGCUCAACACAGCGUGGCAAAGUGGCUGUGGCUAGGCUGCCUCCCUGGAUUCCUCGUCACUCAGCAGGGUAUCUCUGAGAGAAAUGCC [A94G U102C C128U]	0
UACGUAGGUGGUUUUCCCCUGAUAGUGCUAAGGGGGCCUGGAAGUUUGGACUGGGCAGAGCUCAACACAGCGUGGCAAAGUGGCUGUGGCUAGACUGCCCCUCUGGAUUCCUCGUCACUCAGCAGGGCAUCUCCGAGAGGAAUGCC [U100C U134C A140G]	1.2
UACGUAGGUGGUUUUCCCCUGAUAGUGCUAAGGGGGCCUGGAAGUUUGGACUGGGUUGAGCUCAGCACAGCGUGGCAAAGUGGCUGUGGCUAGACUGCCUCUCUGGAUACCUCGUCACUCAGCAGGGCAUCUCUGAGAGAAAUGCC [C56U A57U A65G U109A]	0.07
UACGUAGGUGGUUUCCCCCUGAUAGCGCUAAGGGGGCCUGGAAGUUUGGGCUGGGCAGAGCUCAACACAGCGUGGCAAAGUGGCUGUGGCUGGACUGCCUCUCUGGAUUCCUCGUCACUCAGCAGGGCAUCUCUGAGAGAAAUGCC [U15C U26C A50G A92G]	0
UACGUAGGUGGCUUUCACCUGAUAGUGCUAAGGGGGGCUGGAAGUUUGGACUGGGCAGAGUUCAACACAGCGUGGCAAGGUGGCUGUGGCUAGACUGCCUCUCUGGAUUCCUCGUCACUCAGCAGGGCAUCUCUGAGAGAAAUGCC [U12C C17A C37G C61U A79G]	0.15
UACGUAGGUGGUUUUCCCCUGAUAGUGCUAAGGGGGCCUGGGAGAUUGGACUGGGCAGAGCUCAACACGGCGUGGCAAAGUGGCUGUGGCUAGACUGCCUCUCUGGAUUCCUCGUCACUCAGCAGGGCAUCUCUGAGAGAAAUGCC [A42G U45A A69G]	0.32
UACGUAGGUGGUUUUCCCCUGAUAGUGCUAUGGGGGCCUGGAAGUUUGGACUGGGCAGAGCUCAACACAGCGUGGCAAAGUGGCUGUGGCUAGACUGCCUCUCUGGGUUCCCCGUCACUCAGCAGGGCAUCUCUGAGAGAAAUGCC [A31U A107G U112C]	1.77
UACGCAGGUGGUUUUCCCCUGAUAGUGCUAAGGGGGACUGGAAGUUUGGACUGGGCAGAGCUCAACACAGCGUGGCAAGGUGGCUGUGGCUAGACUGCCUCUCUGGAUUCCUCGACACUCAGCAGGGCAUCUCUGAGAGAAAUGCC [U5C C37A A79G U115A]	1.02
UACGUAGGUGGUUUUCCCCUGAUAGUGCUAAGGGGGCCUGGGAGUUUGGACUGGGCAGAGCUCAACUCAGCGUGGCGAAGUGGCUGUGGCUAGUCUGCCUCUCUGGAUUCCUCGUCACUCAGCAGGGCAUCUCUGAGAGAAAUGCC [A42G A67U A77G A94U]	0.13
UACGUAGGUGGUUUCCCCCUGAUAGUGCUAAGGGGGCCUGGAAGUUUGGACUGGGCAGAGAUCAACACAGCGUGGCAAAGUGGCUGUGGCUAGACUGCCUCUCUGGAUUCCUCGUCACUCAGCAGGGCGUCUCUGAGAGAAAUGCC [U15C C61A A129G]	0.08
UACGUAGGUGGUUUUCCCCUGGUAGUGCUAAGGGGGCCUGGAAGUUUGGACUGGGCAGAGCUCAACACAGCGCGGCAAAGUGGCUGUGGCUAGACUGCCUCUCUGGAUUCCUCGUCACUCAGCAGGGCAUCUCUGGGAGAAGUGCC [A22G U73C A136G A142G]	0.48
UACGUAGGUGGUUUUCCCCUGAUAGUGCUAAGGGGGCCUGGAAGUUUGGACUGGGCAGAACUCAACACAGCGUGGCAAAGUGGCUGUGGCUAGACUGCCUCUCUGGAUUCCUCGUCACUCAGUAGGGCAUCUCUGAGAGAGAUGCC [G60A C123U A141G]	0.03
